Results as given in the supplement of paper PMC9446081.
Hit rate of the full screen: of about 39,000 compounds, about 220 (0.56%) showed activity. Some of the results follow.

Test system: Escherichia coli K-12 BW25113
Test: relative growth (OD600 normalised to plate interquartile mean) (fraction); higher = less growth inhibition, active = 0.2 or less
Conditions: 50 µM; LB; incubation time: overnight (16-24 h)
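Note: static incubation at 37 °C against the wild-type strain, values averaged over two biological replicates.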

| Structure (SMILES) | relative growth |
| --- | --- |
| Cc1ccc(S(=O)(=O)N(C)C[C@@H]2Oc3ccc(NS(=O)(=O)c4cccs4)cc3CC(=O)N([C@@H](C)CO)C[C@H]2C)cc1 | inactive: 0.997 |
| COCN(C#N)c1nc(N(C)C)nc(N(C)C)n1 | inactive: 1 |
| COC(=O)C[C@@H]1CC[C@@H]2[C@H](COC[C@H](O)CN2S(=O)(=O)c2ccc(F)cc2)O1 | inactive: 0.995 |
| Cc1noc(C)c1NC(=O)N(C)C[C@@H]1Oc2ncc(C#CCC(C)C)cc2C(=O)N([C@H](C)CO)C[C@H]1C | inactive: 1 |
| Cn1ncc2c(N3CCCC3)ncnc21 | inactive: 1.02 |
| Clc1ccc(C2=Nc3cccc4cccc(c34)N2)cc1 | inactive: 0.974 |
| COc1ccc([Si](C)(C)[C@@H]2[C@@H](CCO)O[C@]3(C(=O)N(Cc4cccc(N5CCCCC5=O)c4)c4ccccc43)[C@H]2C)cc1 | inactive: 1.05 |
| C[C@H](CO)N1C[C@H](C)[C@@H](CN(C)S(=O)(=O)c2cn(C)cn2)Oc2c(NC(=O)c3cnccn3)cccc2C1=O | inactive: 1.01 |
| C[C@H]1CCCCO[C@H](CN(C)C(=O)NC2CCCCC2)[C@@H](C)CN([C@@H](C)CO)C(=O)c2cc(NC(=O)c3ccccc3)ccc2O1 | inactive: 0.966 |
| C[C@@H]1CN([C@@H](C)CO)C(=O)Cc2cc(NC(=O)c3ccncc3)ccc2O[C@@H]1CN(C)C(=O)Nc1ccc2c(c1)OCO2 | inactive: 0.95 |
| CS(=O)(=O)Nc1ccc2c(c1)[C@@H]1C[C@@H](CC(=O)NCc3ccc(-c4ccccc4)cc3)O[C@H](CO)[C@@H]1O2 | inactive: 0.989 |
| CCC[C@@H](O)C#Cc1cnc2c(c1)C(=O)N([C@H](C)CO)C[C@H](C)[C@H](CN(C)S(=O)(=O)c1ccc(C)cc1)O2 | inactive: 1.04 |
| COc1ccc(NC(=O)Nc2ccc3c(c2)C(=O)N([C@H](C)CO)C[C@@H](C)[C@@H](CN(C)S(C)(=O)=O)O3)cc1 | inactive: 0.935 |
| NC[C@@H]1O[C@H](O[C@H]2[C@@H](O)[C@H](O[C@@H]3[C@@H](O)[C@H](N)C[C@H](N)[C@H]3O[C@@H]3O[C@H](CO)[C@@H](O)C[C@H]3N)O[C@@H]2CO)[C@H](N)[C@@H](O)[C@@H]1O[C@H]1O[C@H](CO)[C@@H](O)[C@H](O)[C@@H]1O | inactive: 1.01 |
| O=C(C[C@H]1CC[C@@H]2[C@H](COC[C@H](O)CN2C(=O)Nc2cccc(F)c2)O1)NCc1ccccc1Cl | inactive: 1 |
| C[C@H](CO)N1C[C@H](C)[C@@H](CN(C)C(=O)C2CCCCC2)OCCCC[C@H](C)Oc2ccc(NC(=O)c3ccncc3)cc2C1=O | inactive: 1 |
| CN1CCCC1c1cccnc1.O=C(O)C(O)C(O)C(=O)O.O=C(O)C(O)C(O)C(=O)O (centres undefined) | inactive: 1.14 |
| C[C@]1(C(=O)NCCN2CCOCC2)c2ccccc2C(=O)N(Cc2cc(C(F)(F)F)cc(C(F)(F)F)c2)[C@H]1c1ccc(CO)cc1 | inactive: 0.982 |
| C[C@@H]1CN([C@H](C)CO)C(=O)Cc2cc(NS(=O)(=O)c3cccs3)ccc2O[C@@H]1CN(C)CC1CC1 | inactive: 0.995 |
| C[C@@H]1CCCCO[C@@H](CN(C)Cc2ccccc2)[C@H](C)CN([C@H](C)CO)C(=O)c2cc(NS(=O)(=O)c3ccccc3)ccc2O1 | inactive: 1.02 |

| Structure (SMILES) | relative growth |
| --- | --- |
| O=C(C[C@H]1CC[C@@H]2[C@H](COC[C@@H](O)CN2C(=O)Nc2cc(Cl)cc(Cl)c2)O1)N1CCOCC1 | inactive: 1.01 |
| C[C@@H]1CN([C@@H](C)CO)C(=O)c2cc(NS(=O)(=O)c3ccc(F)cc3)ccc2O[C@@H]1CN(C)C(=O)Nc1ccc(C(F)(F)F)cc1 | inactive: 0.996 |
| CO[C@H]1CN(C)C(=O)c2ccc(NC(=O)Nc3cccc(F)c3)cc2OC[C@H](C)N(C(=O)Nc2c(C)noc2C)C[C@@H]1C | inactive: 0.984 |
| O=C1C(=O)C(O)C(=O)C(=O)C1O (centres undefined) | inactive: 1 |
| CN(C)CCNc1ccc(CN)cc1 | inactive: 1.01 |
| C[C@@H]1CN([C@@H](C)CO)S(=O)(=O)c2ccc(-c3ccncc3)cc2O[C@H]1CN(C)C(=O)c1ccc2c(c1)OCO2 | inactive: 1.01 |
| C[C@H](CO)N1C[C@H](C)[C@H](CN(C)S(C)(=O)=O)Oc2c(NS(=O)(=O)c3ccccc3)cccc2C1=O | inactive: 0.985 |
| COc1ccc([Si](C)(C)[C@@H]2[C@@H](CCO)O[C@]3(C(=O)N(Cc4ccc(N5C(=O)c6cccc7cccc5c67)cc4)c4ccccc43)[C@H]2C)cc1 | inactive: 1.06 |
| CN(C)CC#Cc1ccc([C@H]2[C@H](CO)N3C(=O)CN(C(=O)CN(C)C)C[C@@H]23)cc1 | inactive: 1.02 |
| COc1ccc(CCC(=O)c2c(O)cc(O[C@@H]3O[C@H](CO)[C@@H](O)[C@H](O)[C@H]3O[C@@H]3O[C@@H](C)[C@H](O)[C@@H](O)[C@H]3O)cc2O)cc1O | inactive: 1 |
| C[C@@H]1CN([C@H](C)CO)C(=O)c2cc(NC(=O)Cc3cn(C)c4ccccc34)ccc2O[C@@H]1CN(C)Cc1ccc(Cl)c(Cl)c1 | inactive: 1 |
| C[C@@H]1CN([C@H](C)CO)C(=O)c2cc(NC(=O)CCN3CCOCC3)ccc2O[C@@H]1CN(C)S(=O)(=O)c1ccc(Cl)cc1 | inactive: 1 |
| CCOC(=O)c1n[nH]c(=S)[nH]c1=O | inactive: 1 |
| CC=Cc1ccc2n(c1=O)C[C@@H]1[C@@H](CO)[C@H](C(=O)NCCCN3CCOCC3)[C@H]2N1Cc1cocn1 | inactive: 1.01 |
| Cc1ccc(S(=O)(=O)Nc2ccc3c(c2)C(=O)N([C@@H](C)CO)C[C@@H](C)[C@@H](CN(C)S(=O)(=O)c2ccc(F)cc2)O3)cc1 | inactive: 1.01 |
| Cc1cc(O)c2c(c1)C(=O)c1cc(O)cc(O)c1C2=O | inactive: 0.923 |
| C[C@@H]1CN([C@H](C)CO)C(=O)Cc2cc(NS(=O)(=O)c3ccccc3)ccc2O[C@@H]1CN(C)S(=O)(=O)c1cccs1 | inactive: 1.01 |
| COc1ccc(S(=O)(=O)N(C)C[C@H]2Oc3ccc(NC(=O)NC(C)C)cc3CC(=O)N([C@@H](C)CO)C[C@H]2C)cc1 | inactive: 1 |
| C[C@H](CO)N1C[C@H](C)[C@H](CN(C)S(C)(=O)=O)Oc2ccc(NC(=O)CCCCCC(=O)Nc3ccccc3N)cc2CC1=O | inactive: 0.981 |
